The campaign covered roughly 150,000 compounds. About 540 (0.36%) showed an effect of 50% or more. The list shows a part of the results.
system: Plasmodium falciparum; assay: Primary screen in NF54 nanoGlo assay, in single point, at 2uM, 72h; a lower Z score goes with more inhibition; type: functional, Erythrocyte; conditions: timepoint 72 hour

Row | Structure (SMILES) | % Inhibition [%] | Z score
1 | O=C(Nc1ccc2c(c1)OCCCO2)c1ccc(S(=O)(=O)N2CCCCCC2)cc1 | -18 | 3.46
2 | COc1ccccc1C1=NS(=O)(=O)N(C)C(C(=O)N2CCCCC2)=C1 | -1 | 0.13
3 | CN(Cc1ccc(F)cc1)C(=O)CN(C)C1CC[S+]([O-])CC1 (stereo not drawn) | -12 | 1.2
4 | Cc1cccc2[nH]c([C@@H]3CCCN3C(=O)Cn3nnnc3N)nc12 | -2 | 0.32
5 | COc1nc(NC[C@@H](C(C)C)N(C)C)ncc1F | -8 | 1.57
6 | CCCCCc1nnc(NC(=O)Cn2ncc(=O)c3ccccc32)s1 | 11 | -2.16
7 | Cc1nc(NC(=O)Cn2nnc3ccccc32)ccc1Br | 4 | -0.81
8 | Cc1cnccc1CNC(=O)c1ccnn1C | -9 | 0.93
9 | CCOc1ccc([C@H]2CC(=O)Nc3snc(C)c32)cn1 | -8 | 1.26
10 | Cc1cc(C(=O)N2CCCCC2)c2c(=O)n(CC(=O)NC(C)(C)C)c(=O)n(-c3ccccc3)c2n1 | -7 | 1.26
11 | N[C@H]1CCN(C2CCN(c3ccc(Cl)cc3)CC2)C1 | 5 | -0.51
12 | COCCO[C@H]1CCN(C(=O)c2nccc3ccccc23)C1 | -10 | 1.13
13 | Cc1nn(C)cc1-c1nnc(-c2noc3c2C[C@@H](C)CC3)o1 | 3 | -0.41
14 | O=C(c1ccc(O)nc1)N1CCN(S(=O)(=O)c2ccc3ccccc3c2)CC1 | -9 | 1.19
15 | COC(=O)n1c(=S)oc2cc(Cl)ccc21 | 1 | -0.15
16 | COc1ccccc1C(=O)Nc1sccc1-c1nc(C2CC2)no1 | -2 | 0.22
17 | Cc1cnc(-n2ncc(C(=O)N3CCC(CO)CC3)c2C2CC2)nc1-c1cccs1 | -20 | 2.27
18 | COc1ccccc1COc1cccc(NC(=O)N[C@@H]2COC(C)(C)C2)c1C | -1 | 0.08
19 | O=C(CC1CC2CCC1C2)N1CCC(C(=O)N2CCCCCC2)CC1 (stereo not drawn) | -6 | 1.15
20 | CN(Cc1cscn1)C(=O)Nc1cc(C(F)(F)F)c[nH]c1=O | 2 | -0.29
21 | CN1C[C@@H](COc2cccnc2)N(C(=O)c2ccccc2)[C@@H](Cc2ccccc2)C1=O | 2 | -0.24
22 | Cn1nc2n(c1=O)CCN(C(=O)NC1CCCCC1)CC2 | -17 | 2.2
23 | COc1cccc(-c2cc(C(F)(F)F)n3nc(C(=O)Nc4cnn(CC(=O)NCc5ccco5)c4)cc3n2)c1 | 16 | -1.82
24 | Cc1nc(C)c(CCNC(=O)N2CCC[C@@H]2Cn2ccnc2)s1 | -1 | 0.21
25 | COCC(=O)NC1CCN(Cc2cnn(-c3ccccc3)n2)CC1 | -7 | 0.98
26 | O=C(Nc1ccc(Cl)cn1)NC1CCCCC1 | -15 | 1.25
27 | COC(=O)c1ncccc1OCc1ncc(Cl)cc1Cl | -11 | 1.21

Row | Structure (SMILES) | % Inhibition [%] | Z score
28 | CCCc1ccc(CC(C)CN2CCOC(c3nnc(C)o3)C2)cc1 (stereo not drawn) | -7 | 1.39
29 | O=C(NCc1ccncc1)C1CC=CCC1c1nc2ccccc2s1 (stereo not drawn) | -7 | 0.87
30 | CCCCOCC(=O)NCc1ccc(C(=O)N(C)C)o1 | -2 | 0.32
31 | O=C(CCc1cc2n(n1)CCN(Cc1ccsc1)C2)N1CCCC1 | -11 | 1.45
32 | O=C(NCCO)Nc1ccc(Br)cc1OC(F)(F)F | -13 | 1.34
33 | Cc1cc(C)cc(-n2nc(CC(N)=O)nc2-c2ncoc2C)c1 | -19 | 2.94
34 | Cc1nn(C)c(C)c1CCOC(=O)c1ccc(N2CCCC2)nc1 | -2 | 0.16
35 | CO[C@H]1CCN(C(=O)c2ccc3c(c2)OCC(=O)N3)C1 | 30 | -3.43
36 | c1ccc(Cn2ncc3[nH]c(-c4ccccc4OCCN4CCOCC4)nc32)cc1 | -5 | 0.67
37 | CCc1nc(N(CCC(=O)NC(C)C)Cc2ccco2)c2cc(Cl)cc(Cl)c2n1 | -6 | 0.89
38 | Fc1ccc(OCCn2ccnn2)c(Cl)c1 | -4 | 0.44
39 | Cc1csc(-c2cnc(C)n(C)c2=O)n1 | 12 | -1.58
40 | CCc1cc(NCc2cc3c(nc2OC)CN(C2CCCC2)C3=O)ncn1 | -2 | 0.33
41 | O=C(CCS(=O)(=O)c1ccc(Cl)cc1)NCCc1ccc(Cl)cc1 | 17 | -2.03
42 | CN(C)c1ccc(-c2noc(CCNC(=O)c3ccco3)n2)cc1 | -3 | 0.53
43 | C[C@@H](C(=O)N(Cc1cc(F)ccc1F)C1CCCC1)S(C)(=O)=O | 10 | -1.42
44 | O=C([C@H]1CCCN(c2ncnc3c2nc2n3CCCCC2)C1)N1CCN(c2ccccc2)CC1 | -11 | 1.77
45 | CC1(CO)CCN(C(=O)Nc2ccccc2OC[C@H]2CCCCO2)CC1 | -8 | 1.66
46 | CC(=O)N1CCC(C(=O)N2CCCO[C@@H](Cn3cccn3)C2)CC1 | -29 | 2.97
47 | Cc1ccc(C)c(S(=O)(=O)N(CCCc2ccccc2)CCS(=O)(=O)N2CCNCC2)c1 | -7 | 0.79
48 | CCc1cc(CNC2CC3(CCN(C(=O)OC(C)(C)C)CC3)C2)on1 | 16 | -1.99
49 | CC(C)c1ccc(Cc2nnc(Nc3cccnc3)[nH]c2=O)cc1 | -7 | 0.85
50 | Cc1nc([C@H](C)NC(=O)Nc2c(-c3ccccc3)cnn2C(C)(C)C)n[nH]1 | -9 | 1.03
51 | Cc1ccc(S(=O)(=O)C(C#N)c2nc3ccccc3nc2N2CC(C)CC(C)C2)cc1 (stereo not drawn) | -9 | 0.82
52 | Cc1nn(C)c(C)c1CC(=O)Nc1ccc2nscc2c1 | 1 | -0.16
53 | O=c1cc(C2CCN(Cc3cccn3-c3ccc(Cl)cn3)CC2)nc[nH]1 | -2 | 0.22
54 | CCOc1ccc(Br)cc1NC(=O)NC[C@H]1CCOC1 | -10 | 0.91
